Reference: the supplement of paper PMC11417369
The list shows a part of the results.

Each sequence was assayed on PfAP2-HC AP2 domain (GST-tagged) (assay: gcPBM binding intensity (ln(normalized median fluorescence intensity)); higher = stronger DNA binding).
Outline: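 Alexa488 anti-GST antibody, scanned at 488 nm, detected GST-tagged P. falciparum DNA-binding domains that had been expressed in E. coli and incubated for 1 h on an Agilent 4 × 180k array. The array carried primer-extended double-stranded 36-bp intergenic genomic probes and negative controls. Binding intensity is the highest Masliner-normalised natural-log median intensity across replicate spots of either orientation of each probe.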

Row | Sequence | gcPBM binding intensity (ln)
1 | CATATTATTATTTTGGTGCATACTTATATATATTTT | 9.85
2 | GTACCTATTTCATACACACACACACCCAAACAAACA [CACACA_site976] | 10.5
3 | AACATTGATAAATATAAACACACGAAAACAGACATA [CACACA_site490] | 10.3
4 | CTTGTACCTAGAAATACACACAATTCTATAACTTAT [CACACA_site7355] | 9.79
5 | AATTTACATATATATTGTACATTTATGTATATATAT [XGTACX_site4186] | 9.87
6 | TAATATTTTTTGTGTACACATATATATATATATATA [CACACA_site5504] | 9.77
7 | TACTTATATTGAAATGGTACAGATAAAAAAAAAAAA [XGTACX_site1407] | 9.51
8 | TTTTGTAATGTGAATATTTGTATATTATTTGTATAT [CACACA_negctrl_site1677] | 9.68
9 | ACATTCTATCTAAGTACACACATTAATTTTTTTTTT [CACACA_site4106] | 9.9
10 | ATCTTATATCGTAGAGATTTTTTTTTTTTTTCATTT [XGTACX_negctrl_site140] | 9.53
11 | AATTTCTTCTTAGGGTGTACAATTTGACATAAGGAA [XGTACX_site1773] | 9.39
12 | GTAATATATATTAAGTAATAGTTTATCTTAGGAAAA [TGCATGCA_negctrl_site302] | 9.73
13 | AATTAGATGGATAAATGTACATATGTGAATATATTT [XGTACX_site85] | 9.85
14 | GTGCCCTTTTTAATAACATGCAAATAACATATTTAT [TGCATGCA_site709] | 9.82
15 | AAAAAAAAAAAAAACACACAAACATCAAATTATTAT [CACACA_site1838] | 10.4
16 | TTTATATTATACGCACTAATATATATATATATATAT [TGCATGCA_negctrl_site47] | 9.75
17 | ATATAACACAAGGGCACACATATACCTTTCCTTTTT [CACACA_site412] | 9.9
18 | CTTCTTGTAAAATTTGCATGTAATTAAAAGAGAATG [TGCATGCA_site484] | 9.33
19 | GCCTTTTAGTATTTCACACACGTAAATGAGTATATC [CACACA_site4748] | 9.96
20 | TTCCCTATCTTTTCAGTGCATTTTGTTTCCTACCTT [GTGCAC_site9813] | 9.76
21 | ATAAAATTTATGACTTGTACATGTAAATAAAATATA [XGTACX_site762] | 9.73
22 | TTTAAATATATATATTGTACAAAAAAAAATAATAAA [XGTACX_site4759] | 9.59

Row | Sequence | gcPBM binding intensity (ln)
23 | TGTAGAACTCAATATTGTACATTATATAAAATGGGA [XGTACX_site3857] | 9.59
24 | ATATATATATATTGTACACACATTTATGCATATATA [CACACA_site5738] | 10.2
25 | TTTTTTTGCATTTCATGTACATATATTGAGCTTAAA [XGTACX_site8485] | 9.6
26 | ATATTACAGTACAATACATGCATATGGAAAAAAAAA [TGCATGCA_site72] | 9.81
27 | ATAAAGAATATAAATACACACTTAAATATAGATTAT [CACACA_site7804] | 9.91
28 | ATTGGTTCCCCTCTCTTTTCAATATATTTTTTTTTT [XGTACX_negctrl_site259] | 9.69
29 | GATATAGGGCGTATGTTAATCGTGAAAGAGTGTCTT [GTGCAC_negctrl_site102] | 9.63
30 | TTCAAATGATTTATGTGTACATAAAATTATTTTTTA [XGTACX_site107] | 9.48
31 | AAAAAATTAAAAATCACACATAAATATATATAAAAA [CACACA_site4192] | 9.69
32 | TAATGAAGCTTATGCACACGTTCATTATTTATATTA [CACACA_site3219] | 9.66
33 | ATTTATATTACCCTTGCATGTAGGTGCAATTTTTTT [TGCATGCA_site757] | 9.88
34 | CATTTTGTTTTAAAGTGTACATTATGTAATATAAAA [XGTACX_site647] | 9.33
35 | TTTTTATAGGTAAAAACACACGCTAAAAATAATTAA [CACACA_site3731] | 9.53
36 | AATAAATATATATTCACACACAAACATATATATATA [CACACA_site4023] | 10
37 | AAATAAATAAATAAATAAACAAATATGTATAAATGG [XGTACX_negctrl_site153] | 10.2
38 | AGGTACTTTTTTAAAACACACATATAATAAATACAC [CACACA_site4730] | 9.81
39 | TCAACTATCAATATAGTGCATTTTTTTTGGAAAACC [GTGCAC_site9927] | 9.34
40 | TATCAAAATTAGTATACACACAAAATTAATCAAATA [CACACA_site7117] | 9.86
41 | ATAAGATTAAACATTGCACACAGAAATATATTTTCT [CACACA_site8743] | 9.97
42 | TATATATATATATATTGTACATATGTAACCTTTTAA [XGTACX_site3914] | 9.55
43 | CCTATATAATATATTTGTACTTAATAATTAAAGTGT [XGTACX_site5151] | 9.56
44 | TTTTTTAGATTACATAAATATAAATATAAATATATA [GTGCAC_negctrl_site459] | 9.13

Row | Sequence | gcPBM binding intensity (ln)
45 | TAAAATAAAAATTTATGTACACATAAAAAAACAAAA [XGTACX_site1112] | 9.75
46 | GAGAGTACCTATATTGCATGCAGACTTTTTAAATAT [TGCATGCA_site564] | 9.65
47 | TTTTTTTTTTTTTGTAGTACATTATGTATATTTTTA [XGTACX_site7810] | 9.55
48 | TTAATAAGAGAGCAATAGGTGGACTGTTTCTTTTAT [CACACA_negctrl_site1239] | 9.72
49 | GTTAAAATAATATGGTGTACAAATATATAAGTTCAT [XGTACX_site3262] | 9.83
50 | ATATATATATATAAAAGTACTTATTTTTATTTACAT [XGTACX_site4299] | 9.76
51 | AAAAATATAATATATCTAAAATTTTTCATTAAATAT [XGTACX_negctrl_site274] | 9.52
52 | ACATATATATATTTATATATATATATATATATGTGA [CACACA_negctrl_site613] | 9.47
53 | ATAAATAAAAATACATGAACAGGTCAGGTTATTTTT [CACACA_negctrl_site1007] | 9.61
54 | TTATATATAGAATAAACATGCATTTGTATATGAATA [TGCATGCA_site604] | 9.58
55 | TTTTTTTTTTTTTTTACACACTATAGGGAAAAAAAA [CACACA_site1916] | 9.27
56 | TGTATATAAACAAGGGGTACAATAATATAAATAAAT [XGTACX_site8675] | 9.89
57 | TCATATTAATTTGATAGTACATATACTTTGAAGTCC [XGTACX_site3767] | 9.5
58 | TCACATACATTACTTACACACCATATTAATATATAC [CACACA_site8047] | 9.94
59 | AATAAAAAATAAAAAATAAACAGTATACATATATAT [GTGCAC_negctrl_site31] | 9.79
60 | AACAGACATAGACACACACACATATATTTATTTATA [CACACA_site7571] | 10.4
61 | ATGCAAATAATATAAAGTACACAACATCGCCCAAAG [XGTACX_site1825] | 10
62 | TTTTTTAAATTTTGAATTATAACTACATTAAAGAAA [GTGCAC_negctrl_site279] | 8.97
63 | CATTATGTCATAAATGCACACATATATATATACATA [CACACA_site8454] | 9.73
64 | TATTTAAAAGTATATACACACAACTGGAATGAAAAG [CACACA_site4126] | 9.98
65 | ATTATAACACCTCCCCCCCTTTTTTTATGAAGACCA [CACACA_negctrl_site1043] | 10.1
66 | TATTTTAATCGTAAGTGTACTCTTTTAAGTATATGT [XGTACX_site8591] | 9.64

Row | Sequence | gcPBM binding intensity (ln)
67 | TATGTATGCCCTAATGCATGTGAACAAAATAATATA [TGCATGCA_site407] | 9.56
68 | AAAATTAAAAAAATAAATACATTATATAATTAAAAA [CACACA_negctrl_site1426] | 9.52
69 | TTTATTAGATAACGATAAACGAAAAAAAAAAAATAA [GTGCAC_negctrl_site81] | 9.4
70 | ATAATATAAATAAAGCGTACTTAATTTTATATATAT [XGTACX_site4626] | 9.6
71 | TGTTGTAACAAAAGTACACACACATTTCTATAAATT [CACACA_site8894] | 9.86
72 | ATTACATAACAATATACACACTATTGATTAAAGAGA [CACACA_site5602] | 9.82
73 | CTATAAATGAATGTTTGTACTTAATAATAAAAGAAA [XGTACX_site3170] | 9.49
74 | TTTTTTACAAATGATATCATTTCTTTAAATATTAAA [TGCATGCA_negctrl_site279] | 9.59
75 | TATTTTTTTCATAACAGTACAATAATATATATTTTT [XGTACX_site5739] | 9.61
76 | GCACACACAAAAAAAGCATGCATACTAGCTATTTTT [TGCATGCA_site18] | 10
77 | AATCAAAAAAAATGTTGTACGCCTAATTATAATTAA [XGTACX_site8906] | 9.52
78 | AATGAAATAAATAAGGGTACACATAAATATATATAT [XGTACX_site7006] | 9.83
79 | AAAAAACACCCATACACACACACACCGATATATATA [CACACA_site5808] | 11
80 | TATTCGTGCAATAATAGTACACTTATAAATTATTCA [XGTACX_site8993] | 9.52
81 | AATGGGGAAGGTTCTACACACAACGCAAATGCCTTA [CACACA_site2758] | 9.87
82 | TATAAATAATGTTAAACACACATACCGATATATAAT [CACACA_site5499] | 9.82
83 | AAATTATTATGTATTTGTACACATAAGAATATAAAA [XGTACX_site6841] | 10
84 | AGAGAAAGAAAGAAATGTACAAATACCTACACACAT [XGTACX_site3140] | 10.2
85 | TCAGTTAATGTATATGTACACACGGTGAGTATATAT [CACACA_site3346] | 9.76
86 | ATCCACAAAATAGGATGTACATATAAAATAAATAAA [XGTACX_site5362] | 9.75
87 | TATGGAATAATACGCGTACACACATATATATATTAA [CACACA_site132] | 9.87
